Test results as given in patent publication US9101137B2 (priority 2011, dated 2015).
Counter-ions that a name gives are not always drawn.

Tested on: rice leaffolder
Assay: whole plant or invertebrate
Settings: Cnaphalocrocis medinalis, 72 h, read-out: Adjusted insect mortality (%)
Description: 10 mg of each of pyribencarb and cartap hydrochloride was each dissolved in 1 ml of acetone (manufactured by Wako Pure Chem Industries, Ltd.) containing Sorgen TW-20 (manufactured by Dai-ichi Kogyo Seiyaku Co., Ltd) and each solution was diluted with water containing 0.02% by volume of a spreader (trade name: Dain (registered trade name), manufactured by Sumitomo Chemical Takeda Agro Company) to attain a predetermined concentration. The water-diluted solution of pyribencarb was mixed with the water-diluted solution of cartap hydrochloride to prepare test sample solutions.
10 mL of each of the test sample solutions per plant was sprayed to 2.5 leaf stage seedlings of rice (Oryza sativa, variety: Nanatsuboshi) planted in a paper pot. After air drying, the rice seedlings were placed in plastic cups (diameter 90 mm, height 30 mm) containing water. Ten first instar larvae of rice leaffolder were released in the cups and the cups were placed in a room (25° C., humidity 60%). […] Based on the observation results, the insect mortality was calculated by equation 2) and the adjusted insect mortality was calculated by equation 3). The tests were carried out in duplicate. […]

## CN(C)C(CSC(N)=O)CSC(N)=O [Cartap hydrochloride, cartap hydrochloride]
  mortality at 100 ppm: 52.6%

## COC(=O)NCc1cc(/C(C)=N/OCc2cccc(C)n2)ccc1Cl [Pyribencarb, pyribencarb]
  mortality at 10 ppm: 0%
